# The other results are listed elsewhere or left out.
# How the values were obtained:
# Experiment in all cases: glycan array binding signal (z-score within array); higher = stronger binding
# Settings in all cases: glycan notation: IUPAC condensed, linker removed
# [1] = target: Fuc(a1-2)Gal
# Outline: (§1)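 Columns mapping to the same glycan were averaged after glycan names were converted to IUPAC-condensed notation. The data come from 3228 arrays in the Consortium for Functional Glycomics database, limited to those with an available protein sequence. Binding is reported as a within-array Z-score averaged across arrays of one protein sequence and across linkers.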
# [2] = target: Fuc(a1-2)Gal(b1-3)GalNAc
# Outline: as §1
# [3] = target: Fuc(a1-2)Gal(b1-3)GalNAc(b1-3)Gal
# Outline: as §1
# [4] = target: Fuc(a1-2)Gal(b1-3)GalNAc(b1-3)Gal(a1-4)Gal(b1-4)Glc
# Outline: as §1
# [5] = target: Fuc(a1-2)Gal(b1-3)GalNAc(b1-4)[Neu5Ac(a2-3)]Gal(b1-4)Glc
# Outline: as §1
# [6] = target: Fuc(a1-2)Gal(b1-3)GlcNAc
# Outline: as §1
# [7] = target: Fuc(a1-2)Gal(b1-3)GlcNAc(b1-3)Gal(b1-4)Glc
# Outline: as §1
# [8] = target: Fuc(a1-2)Gal(b1-3)[Fuc(a1-4)]GlcNAc
# Outline: as §1
# [9] = target: Fuc(a1-2)Gal(b1-4)Glc
# Outline: as §1
# [10] = target: Fuc(a1-2)Gal(b1-4)GlcNAc
# Outline: as §1
# [11] = target: Fuc(a1-2)Gal(b1-4)GlcNAc(b1-3)Gal(b1-4)GlcNAc
# Outline: as §1
# [12] = target: Fuc(a1-2)Gal(b1-4)GlcNAc(b1-3)Gal(b1-4)GlcNAc(b1-3)Gal(b1-4)GlcNAc
# Outline: as §1
# [13] = target: Fuc(a1-2)Gal(b1-4)[Fuc(a1-3)]GlcNAc
# Outline: as §1
# [14] = target: Fuc(a1-2)Gal(b1-4)[Fuc(a1-3)]GlcNAc(b1-3)Gal(b1-4)[Fuc(a1-3)]GlcNAc
# Outline: as §1
# [15] = target: Fuc(a1-2)Gal(b1-4)[Fuc(a1-3)]GlcNAc(b1-3)Gal(b1-4)[Fuc(a1-3)]GlcNAc(b1-3)Gal(b1-4)[Fuc(a1-3)]GlcNAc
# Outline: as §1
# [16] = target: Fuc(a1-2)GlcNAc
# Outline: as §1
# [17] = target: Fuc(a1-2)[Gal(a1-3)]Gal
# Outline: as §1
# [18] = target: Fuc(a1-2)[Gal(a1-3)]Gal(b1-3)GlcNAc
# Outline: as §1
# [19] = target: Fuc(a1-2)[Gal(a1-3)]Gal(b1-4)Glc
# Outline: as §1
# [20] = target: Fuc(a1-2)[Gal(a1-3)]Gal(b1-4)GlcNAc
# Outline: as §1
# [21] = target: Fuc(a1-2)[Gal(a1-3)]Gal(b1-4)[Fuc(a1-3)]GlcNAc
# Outline: as §1
# [22] = target: Fuc(a1-2)[Gal(a1-4)]Gal(b1-4)GlcNAc
# Outline: as §1
# [23] = target: Fuc(a1-2)[GalNAc(a1-3)]Gal
# Outline: as §1
# [24] = target: Fuc(a1-2)[GalNAc(a1-3)]Gal(b1-3)GlcNAc
# Outline: as §1
# [25] = target: Fuc(a1-2)[GalNAc(a1-3)]Gal(b1-4)Glc
# Outline: as §1
# [26] = target: Fuc(a1-2)[GalNAc(a1-3)]Gal(b1-4)GlcNAc
# Outline: as §1
# [27] = target: Fuc(a1-2)[GalNAc(a1-3)]Gal(b1-4)[Fuc(a1-3)]GlcNAc
# Outline: as §1
# [28] = target: Fuc(a1-2)[GalNAc(a1-4)]Gal(b1-4)GlcNAc
# Outline: as §1
# [29] = target: Fuc(a1-2)[GalNAc(b1-3)]Gal
# Outline: as §1
# [30] = target: Fuc(a1-3)GlcNAc
# Outline: as §1
# [31] = target: Fuc(a1-3)[Gal(b1-4)]GlcNAc
# Outline: as §1
# [32] = target: Fuc(a1-3)[Gal(b1-4)]GlcNAc(b1-4)Gal(b1-4)[Fuc(a1-3)]GlcNAc
# Outline: as §1
# [33] = target: Fuc(a1-3)[Gal(b1-4)]GlcNAc(b1-4)Gal(b1-4)[Fuc(a1-3)]GlcNAc(b1-4)Gal(b1-4)[Fuc(a1-3)]GlcNAc
# Outline: as §1
# [34] = target: Fuc(a1-3)[Gal3S(b1-4)]GlcNAc
# Outline: as §1
# [35] = target: Fuc(a1-3)[GalNAc(b1-4)]GlcNAc
# Outline: as §1
# [36] = target: Fuc(a1-4)GlcNAc
# Outline: as §1
# [37] = target: Fuc(b1-3)GlcNAc
# Outline: as §1
# [38] = target: Gal(a1-2)Gal
# Outline: as §1
# [39] = target: Gal(a1-3)Gal
# Outline: as §1
# [40] = target: Gal(a1-3)Gal(b1-3)GlcNAc
# Outline: as §1
# [41] = target: Gal(a1-3)Gal(b1-4)Glc
# Outline: as §1
# [42] = target: Gal(a1-3)Gal(b1-4)GlcNAc
# Outline: as §1
# [43] = target: Gal(a1-3)Gal(b1-4)[Fuc(a1-3)]GlcNAc
# Outline: as §1
# [44] = target: Gal(a1-3)GalNAc
# Outline: as §1
# [45] = target: Gal(a1-3)[Gal(a1-4)]Gal(b1-4)GlcNAc
# Outline: as §1
# [46] = target: Gal(a1-4)Gal(b1-4)Glc
# Outline: as §1
# [47] = target: Gal(a1-4)Gal(b1-4)GlcNAc
# Outline: as §1
# [48] = target: Gal(a1-4)GlcNAc
# Outline: as §1
# [49] = target: Gal(a1-6)Glc
# Outline: as §1
# [50] = target: Gal(b1-2)Gal
# Outline: as §1
# [51] = target: Gal(b1-3)Gal
# Outline: as §1
# [52] = target: Gal(b1-3)GalNAc
# Outline: as §1
# [53] = target: Gal(b1-3)GalNAc(b1-3)Gal(a1-4)Gal(b1-4)Glc
# Outline: as §1
# [54] = target: Gal(b1-3)GalNAc(b1-4)Gal(b1-4)Glc
# Outline: as §1
# [55] = target: Gal(b1-3)GalNAc(b1-4)[Neu5Ac(a2-3)]Gal(b1-4)Glc
# Outline: as §1
# [56] = target: Gal(b1-3)GlcNAc
# Outline: as §1
# [57] = target: Gal(b1-3)GlcNAc(b1-3)Gal(b1-4)Glc
# Outline: as §1
# [58] = target: Gal(b1-3)GlcNAc(b1-3)Gal(b1-4)GlcNAc
# Outline: as §1
# [59] = target: Gal(b1-3)[Fuc(a1-4)]GlcNAc
# Outline: as §1
# [60] = target: Gal(b1-3)[Fuc(a1-4)]GlcNAc(b1-3)Gal(b1-4)GlcNAc
# Outline: as §1
# [61] = target: Gal(b1-3)[Fuc(a1-4)]GlcNAc(b1-3)Gal(b1-4)[Fuc(a1-3)]GlcNAc
# Outline: as §1
# [62] = target: Gal(b1-3)[GlcNAc(b1-6)]GalNAc
# Outline: as §1
# [63] = target: Gal(b1-3)[Neu5Ac(a2-6)]GalNAc
# Outline: as §1
# [64] = target: Gal(b1-3)[Neu5Ac(a2-6)]GlcNAc(b1-6)Gal(b1-4)Glc
# Outline: as §1
# [65] = target: Gal(b1-3)[Neu5Ac(b2-6)]GalNAc
# Outline: as §1
# [66] = target: Gal(b1-4)GalNAc(a1-3)[Fuc(a1-2)]Gal(b1-4)GlcNAc
# Outline: as §1
# [67] = target: Gal(b1-4)GalNAc(b1-3)[Fuc(a1-2)]Gal(b1-4)GlcNAc
# Outline: as §1
# [68] = target: Gal(b1-4)Glc
# Outline: as §1
# [69] = target: Gal(b1-4)Glc6S
# Outline: as §1
# [70] = target: Gal(b1-4)GlcNAc
# Outline: as §1
# [71] = target: Gal(b1-4)GlcNAc(b1-2)Man(a1-3)[Gal(b1-4)GlcNAc(b1-2)Man(a1-6)]Man(b1-4)GlcNAc(b1-4)GlcNAc
# Outline: as §1
# [72] = target: Gal(b1-4)GlcNAc(b1-3)Gal(b1-4)Glc
# Outline: as §1
# [73] = target: Gal(b1-4)GlcNAc(b1-3)Gal(b1-4)GlcNAc
# Outline: as §1
# [74] = target: Gal(b1-4)GlcNAc(b1-3)Gal(b1-4)GlcNAc(b1-3)Gal(b1-4)GlcNAc
# Outline: as §1
# [75] = target: Gal(b1-4)GlcNAc(b1-3)Gal(b1-4)[Fuc(a1-3)]GlcNAc(b1-3)Gal(b1-4)[Fuc(a1-3)]GlcNAc
# Outline: as §1
binder,measurement,setting,value
FaeGac (Escherichia coli) (protein) WMTGDFNGSVDIGGSITADDYRQKWEWKVGTGLNGFGNVLNDLTNGGTKLTITVTGNKPILLGRTKEAFATPVTGGVDGIPHIAFTDYEGASVVLRNPDGETNKKGLAYFVLPMKNAEGTKVGSVKVNASYAGVLGRGGVTSADGELLSLFADGLSSIFYGGLPRGSELSAGSAAAERTKLFGSLSRNDILGQIQRVNANITSLVDVAGSYRENMEYTDGTVVSAAYALGIANGQTIEATFNQAVTTSTQWSAPLNVAITYY,glycan array binding signal (z-score),[1],0.274
same,glycan array binding signal (z-score),[2],-0.434
same,glycan array binding signal (z-score),[3],-0.645
same,glycan array binding signal (z-score),[4],-0.646
same,glycan array binding signal (z-score),[5],-0.138
same,glycan array binding signal (z-score),[6],-0.654
same,glycan array binding signal (z-score),[7],-0.236
same,glycan array binding signal (z-score),[8],-0.249
same,glycan array binding signal (z-score),[9],-0.19
same,glycan array binding signal (z-score),[10],-0.555
same,glycan array binding signal (z-score),[11],-0.23
same,glycan array binding signal (z-score),[12],-0.359
same,glycan array binding signal (z-score),[13],-0.349
same,glycan array binding signal (z-score),[14],-0.574
same,glycan array binding signal (z-score),[15],-0.161
same,glycan array binding signal (z-score),[16],-0.442
same,glycan array binding signal (z-score),[17],-0.026
same,glycan array binding signal (z-score),[18],-0.459
same,glycan array binding signal (z-score),[19],-0.644
same,glycan array binding signal (z-score),[20],-0.711
same,glycan array binding signal (z-score),[21],-0.559
same,glycan array binding signal (z-score),[22],0.157
same,glycan array binding signal (z-score),[23],-0.66
same,glycan array binding signal (z-score),[24],-0.599
same,glycan array binding signal (z-score),[25],-0.075
same,glycan array binding signal (z-score),[26],-0.577
same,glycan array binding signal (z-score),[27],-0.748
same,glycan array binding signal (z-score),[28],-0.633
same,glycan array binding signal (z-score),[29],-0.263
same,glycan array binding signal (z-score),[30],0.65
same,glycan array binding signal (z-score),[31],-0.319
same,glycan array binding signal (z-score),[32],0.063
same,glycan array binding signal (z-score),[33],-0.369
same,glycan array binding signal (z-score),[34],-0.548
same,glycan array binding signal (z-score),[35],-0.491
same,glycan array binding signal (z-score),[36],-0.524
same,glycan array binding signal (z-score),[37],-0.272
same,glycan array binding signal (z-score),[38],0.208
same,glycan array binding signal (z-score),[39],-0.711
same,glycan array binding signal (z-score),[40],-0.433
same,glycan array binding signal (z-score),[41],-0.545
same,glycan array binding signal (z-score),[42],-0.716
same,glycan array binding signal (z-score),[43],-0.05
same,glycan array binding signal (z-score),[44],-0.034
same,glycan array binding signal (z-score),[45],-0.563
same,glycan array binding signal (z-score),[46],-0.179
same,glycan array binding signal (z-score),[47],0.397
same,glycan array binding signal (z-score),[48],-0.178
same,glycan array binding signal (z-score),[49],0.975
same,glycan array binding signal (z-score),[50],0.274
same,glycan array binding signal (z-score),[51],1.14
same,glycan array binding signal (z-score),[52],0.886
same,glycan array binding signal (z-score),[53],0.052
same,glycan array binding signal (z-score),[54],0.323
same,glycan array binding signal (z-score),[55],-0.107
same,glycan array binding signal (z-score),[56],-0.462
same,glycan array binding signal (z-score),[57],0.4
same,glycan array binding signal (z-score),[58],-0.702
same,glycan array binding signal (z-score),[59],-0.136
same,glycan array binding signal (z-score),[60],-0.606
same,glycan array binding signal (z-score),[61],0.284
same,glycan array binding signal (z-score),[62],0.764
same,glycan array binding signal (z-score),[63],0.292
same,glycan array binding signal (z-score),[64],-0.361
same,glycan array binding signal (z-score),[65],0.147
same,glycan array binding signal (z-score),[66],-0.154
same,glycan array binding signal (z-score),[67],-0.395
same,glycan array binding signal (z-score),[68],0.258
same,glycan array binding signal (z-score),[69],1.04
same,glycan array binding signal (z-score),[70],-0.506
same,glycan array binding signal (z-score),[71],-0.258
same,glycan array binding signal (z-score),[72],0.611
same,glycan array binding signal (z-score),[73],0.019
same,glycan array binding signal (z-score),[74],-0.371
same,glycan array binding signal (z-score),[75],0.771

# From the supplement of paper PMC8728848
